Source: the supplement of paper PMC4967469
Lines with a small IC50 respond at low doses; where the fit passes the top or lowest dose, that dose stands as a limit. AUC is the area under the same curve over the 256-fold range up to the top dose, as a fraction; the more sensitive the line, the further below 1. Where the top dose is marked as inferred, it was calculated from the reported fits.

Assays:
Experiment in all cases: Viability of human cancer cell lines after 72 h of drug (GDSC screen)
XMD8-92 = compound: CCOc1cc(N2CCC(O)CC2)ccc1Nc1ncc2c(n1)N(C)c1ccccc1C(=O)N2C [XMD8-92]; details: top dose 10 µM; top dose inferred
Method: (§1)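 Human cancer cell lines in 384-well plates, medium with 10% serum, drug for 72 h over a 256-fold dose range (nine 2-fold or five 4-fold steps up to the top dose). Adherent lines were fixed and stained with the nucleic acid dye Syto60, suspension lines read with resazurin; signal relative to control wells, capped at 0 and 100%. One two-parameter sigmoid per drug and line, fitted in a mixed model over all curves with the slope shared within a line.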

ACHP (KIN001-260) = compound: N#Cc1c(C2CCNCC2)cc(-c2c(O)cccc2OCC2CC2)nc1N [ACHP (KIN001-260)]; details: top dose 20 µM; top dose inferred
Method: as §1

CAY10603 = compound: CC(C)(C)OC(=O)Nc1ccc(-c2cc(C(=O)NCCCCCCC(=O)NO)no2)cc1 [CAY10603]; details: top dose 20 µM; top dose inferred
Method: as §1

CH5424802 = compound: CCc1cc2c(cc1N1CCC(N3CCOCC3)CC1)C(C)(C)c1[nH]c3cc(C#N)ccc3c1C2=O [CH5424802]; details: top dose 5.12 µM; top dose inferred
Method: as §1

| Cell Line | AUC (XMD8-92) | IC50 (XMD8-92) [µM] | AUC (ACHP (KIN001-260)) | IC50 (ACHP (KIN001-260)) [µM] | AUC (CAY10603) | IC50 (CAY10603) [µM] | AUC (CH5424802) | IC50 (CH5424802) [µM] |
| --- | --- | --- | --- | --- | --- | --- | --- | --- |
| SJRH30 (rhabdomyosarcoma, adherent) | 0.911 | > 10 | 0.986 | > 20 | 0.535 | 1.57 | 0.948 | > 5.12 |
| SJSA-1 (bone, adherent) | 0.865 | > 10 | 0.969 | > 20 | 0.592 | 2.31 | 0.979 | > 5.12 |
| SK-CO-1 (large intestine, adherent) | 0.943 | > 10 | 0.97 | > 20 | 0.731 | 5.44 | 0.989 | > 5.12 |
| SK-GT-4 (oesophagus, adherent) | 0.858 | > 10 | 0.977 | > 20 | 0.421 | 0.721 | 0.954 | > 5.12 |
| SK-LMS-1 (soft tissue, adherent) | 0.863 | 7.93 | 0.953 | > 20 | 0.208 | 0.182 | 0.984 | > 5.12 |
| SK-LU-1 (lung adenocarcinoma, adherent) | 0.934 | > 10 | 0.961 | > 20 | 0.672 | 4.33 | 0.747 | 2.03 |
| SK-MEL-1 (melanoma, suspension) | 0.976 | > 10 | 0.99 | > 20 | 0.979 | > 20 | 0.993 | > 5.12 |
| SK-MEL-2 (melanoma, adherent) | 0.911 | > 10 | 0.987 | > 20 | 0.696 | 4.55 | 0.985 | > 5.12 |
| SK-MEL-3 (melanoma, adherent) | 0.937 | > 10 | 0.879 | > 20 | 0.593 | 2.35 | 0.975 | > 5.12 |
| SK-MEL-5 (melanoma, adherent) | 0.893 | > 10 | 0.982 | > 20 | 0.954 | > 20 | 0.983 | > 5.12 |
| SK-MEL-28 (melanoma, adherent) | 0.904 | > 10 | 0.971 | > 20 | 0.726 | 5.39 | 0.988 | > 5.12 |
| SK-MEL-30 (melanoma, adherent) | 0.852 | 8.44 | 0.924 | > 20 | 0.655 | 3.46 | 0.982 | > 5.12 |
| SK-MES-1 (lung squamous cell carcinoma, adherent) | 0.941 | > 10 | 0.982 | > 20 | 0.517 | 1.39 | 0.709 | 1.32 |
| SK-MG-1 (glioma, adherent) | 0.881 | > 10 | 0.88 | > 20 | 0.522 | 1.44 | 0.964 | > 5.12 |
| SK-MM-2 (myeloma, suspension) | 0.87 | > 10 | 0.912 | > 20 | 0.53 | 1.51 | 0.967 | > 5.12 |
| SK-N-DZ (neuroblastoma, adherent) | 0.869 | 9.04 | 0.988 | > 20 | 0.611 | 2.51 | 0.988 | > 5.12 |

| Cell Line | AUC (XMD8-92) | IC50 (XMD8-92) [µM] | AUC (ACHP (KIN001-260)) | IC50 (ACHP (KIN001-260)) [µM] | AUC (CAY10603) | IC50 (CAY10603) [µM] | AUC (CH5424802) | IC50 (CH5424802) [µM] |
| --- | --- | --- | --- | --- | --- | --- | --- | --- |
| SK-PN-DW (Ewing sarcoma, adherent) | 0.967 | > 10 | 0.861 | 18 | 0.508 | 1.32 | 0.98 | > 5.12 |
| SKN (uterus, adherent) | 0.89 | > 10 | 0.952 | > 20 | 0.604 | 2.57 | 0.867 | > 5.12 |
| SLVL (B-cell lymphoma, suspension) | 0.962 | > 10 | 0.822 | 12.6 | 0.24 | 0.209 | 0.982 | > 5.12 |
| SNB75 (glioma, adherent) | 0.834 | > 10 | 0.976 | > 20 | 0.648 | 3.89 | 0.972 | > 5.12 |
| SNG-M (endometrium, adherent) | 0.734 | 2.85 | 0.929 | > 20 | 0.936 | > 20 | 0.959 | > 5.12 |
| SNU-81 (large intestine, adherent) | 0.951 | > 10 | 0.982 | > 20 | 0.982 | > 20 | 0.976 | > 5.12 |
| SNU-387 (liver, adherent) | 0.863 | > 10 | 0.782 | 9.63 | 0.343 | 0.429 | 0.983 | > 5.12 |
| SNU-407 (large intestine, adherent) | 0.87 | > 10 | 0.961 | > 20 | 0.638 | 3.21 | 0.969 | > 5.12 |
| SNU-C1 (large intestine, suspension) | 0.905 | > 10 | 0.974 | > 20 | 0.707 | 6.4 | 0.979 | > 5.12 |
| SNU-C2B (large intestine, adherent) | 0.874 | > 10 | 0.957 | > 20 | 0.564 | 1.97 | 0.901 | > 5.12 |
| SNU-C5 (large intestine, adherent) | 0.912 | > 10 | 0.984 | > 20 | 0.614 | 2.67 | 0.984 | > 5.12 |
| SU8686 (pancreas, adherent) | 0.851 | 9.16 | 0.974 | > 20 | 0.725 | 5.97 | 0.979 | > 5.12 |
| SU-DHL-8 (B-cell lymphoma, suspension) | 0.878 | 8.98 | 0.874 | 17.3 | 0.138 | 0.102 | 0.96 | > 5.12 |
| SU-DHL-10 (B-cell lymphoma, suspension) | 0.872 | 5.15 | 0.918 | 14.1 | 0.011 | < 0.0781 | 0.997 | > 5.12 |
| SW48 (large intestine, adherent) | 0.868 | 9.09 | 0.962 | > 20 | 0.589 | 2.18 | 0.971 | > 5.12 |
